Data taken from PubChem BioAssay AID1508624 (National Center for Advancing Translational Sciences (NCATS), 2021).
Among all 48,000 compounds or so, about 120 (0.25%) were called active. Not shown: some 4% with an inconclusive outcome. The call rests on the fitted dose curve; in most records, active means well fitted activation curve with a large enough effect; inconclusive means small, poorly fitted or top-dose-only effect, or another doubt; inactive means no such curve, though single readings can be large or run the other way. The list shows a part of the results.

Experiment: Primary qHTS for Identification of Small Molecule Activators of Huntingtin-Antisense Promoter Activity; further: nearly all actives have a fitted effect of over 55% in size
Details: HEK293 HTT-AS promoter firefly luciferase reporter, 24 h; series mostly up to 57.5 µM; activity change, positive = activation: at the top concentration
How it was run: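 Firefly luciferase readout (Dual-Glo, 10 min RT) after 24 h, 37 °C compound exposure (final up to 57.5 uM) of HEK293 reporter cells cultured 24 h beforehand; PTC124 at 50 uM final as control inhibitor; activity scaled vehicle 0%, zero RLU -100%.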

Activity change, positive = activation, inactive:
COc1ccc(C(=O)Oc2ccc(C3NC(=O)c4c(sc5c4CCN(C)C5)N3)cc2OC)cc1 (configuration not stated) 6.49%
Cc1ccc(Cl)cc1N1CCN(C(=O)c2cc(S(=O)(=O)N3CCCCC3)cn2C)CC1 -38.3%
CCn1c(=O)n(CC2CCC(C(=O)NC(C)C)CC2)c(=O)c2sccc21 (configuration not stated) -7.98%
CC(C)(C)c1cc(NC(=O)Nc2ccc(-c3cn4c(n3)sc3cc(OCCN5CCOCC5)ccc34)cc2)no1 7.8%
COc1ccc(NC(=O)CSc2c(C(C)C)cnc3c2c(=O)n(C)c(=O)n3C)c(OC)c1 -4.64%
COc1ccc2cc3c(N)nn(C(=O)c4ccc(F)cc4Cl)c3nc2c1 -29.2%
CCOC(=O)c1cc(CC)sc1NC(=O)COc1ccccc1C -7.34%
Cc1cc(NC(=O)CN2CCC(O)CC2)nc2c1c(=O)oc1ccccc12 10.1%
COc1ccc(C(=O)NCC(c2ccc3c(c2)OCO3)N2CCN(C)CC2)cc1OC (configuration not stated) -5.86%
CCOC(=O)c1c(C)[nH]c(C)c1S(=O)(=O)N1CCC(C(=O)Nc2ccc(OC)c(OC)c2)CC1 -8.13%
COc1ccc(Cl)cc1NC(=O)Cn1nnc(C(=O)NCc2cccs2)c1N -40%
COc1ccccc1NC(=O)COC(=O)CC(C)(C)CC1=NS(=O)(=O)c2ccccc2N1 -34.5%
COc1ccc2c(CNCc3ccco3)c(C(=O)O)n(Cc3ccccc3)c2c1 -24.1%
COc1cccc(N2CC(NC(=O)C3CCCC3)CC2=O)c1 (configuration not stated) -4.57%
COc1ccc(N2CCN(C(=O)c3c4c(nc5ccccc35)C(=O)N(C3CCCCC3)C4)CC2)cc1 -10.8%
C=CCOc1ccccc1OCC(O)CNC(C)C (configuration not stated) -5.18%
O=C(Nc1ccc2nc(SCC(=O)N3CCCC3)sc2c1)c1cccc(F)c1 -17.9%
CCc1ccc(-n2c(=O)c3ccc(C(=O)NCCc4ccccc4)cc3n(Cc3ccccc3C#N)c2=O)cc1 -5.44%
COc1ccc(-c2nc3ccccc3o2)cc1NC(=O)c1ccc(OCC(C)C)cc1 24.7%
COc1ccc(-c2nnc(SCC(=O)c3ccc(NC(C)=O)cc3)o2)cc1OC 1.83%
CSc1ccc(C2c3[nH]c4ccccc4c3CCN2C(=O)CCC2CCCC2)cc1 (configuration not stated) -36.3%
COC(=O)c1c(-c2cccs2)csc1NC(=O)c1ccc(C(C)(C)C)cc1 -4.49%
Cc1cccc(Cc2c(C)nc3nc(SCc4cccc(F)c4)nn3c2C)c1 -17.5%
O=S(=O)(c1ccccc1)c1nnn2c1nc(NC1CCCCCC1)c1sccc12 -1.04%
CCOc1ccc(CCNC(=O)CN2C(=O)COc3ccc(S(=O)(=O)N(CC)CC)cc32)cc1 -27.4%
COc1cc(S(=O)(=O)n2ccnc2C(C)C)ccc1Br -22.6%
Cc1ccc(Cn2ccnc2SCC(=O)NC2CCCC2)cc1 -0.947%
COc1ccccc1CNC(=O)C(=O)NCC(c1cccnc1)N1CCN(c2ccc(F)cc2)CC1 (configuration not stated) -46.2%
Cc1ccc(-c2nc(S(=O)(=O)c3ccc(C)cc3)c(N3CCCCC3)o2)cc1 0%
O=C(CN(c1cccc(C(F)(F)F)c1)S(=O)(=O)c1ccccc1)Nc1cccc(Cl)c1 -40.1%
CCCn1c2ccccc2c2cnn(CC(=O)NC(C)CC)c(=O)c21 (configuration not stated) -23.1%
COc1ccc(OC(=O)CSc2nnc(-c3ccc(F)cc3)o2)cc1 -5.55%
CCCCOC(=O)/C(C#N)=C/c1ccc(-c2ccc(Br)cc2)o1 0.587%
Cc1ccc([N+](=O)[O-])c(Oc2ncnc3c2oc2ccccc23)c1 -17.8%
Cc1ccc(NC(=O)CCCN2C(=O)COc3ccc(C)cc32)c(C)c1 -8.14%
Cc1c(N)c(=O)n(-c2ccccc2)n1C -8.01%
Cc1ccc(N2C(=O)CSC23C(=O)N(CC(=O)Nc2ccc(C)cc2C)c2ccccc23)cc1 (configuration not stated) -18.2%
COc1ccc2c(Sc3ccccc3)c(C(=O)N3CCC(C)CC3)[nH]c2c1 6.18%
CCOC(=O)c1c(-c2ccc(C)cc2C)csc1NC(=O)c1ccccc1Cl -12.2%
NC(=O)C1CCN(C(=O)c2ccc3c(c2)N(Cc2cccc(Cl)c2)C(=O)c2ccccc2S3(=O)=O)CC1 -13.6%
Cc1ccc2c(=O)cc(C(=O)Nc3c(C(=O)c4ccccc4)oc4ccccc34)oc2c1 -0.42% [at 11.5 µM, percent change from vehicle, -100% = no light]
CCOc1ccc(NS(=O)(=O)c2ccc3[nH]cc(C(=O)N(C)C4CCCCC4)c(=O)c3c2)cc1 0.865%
O=C(NCCCN1CCCCC1)c1ccc2c(c1)sc1nc(-c3ccc(F)cc3)cn12 4.79%
COCCNC(=O)Cn1cc2c(n1)-c1c(oc(C(=O)N3CCCC3)c1C)CC2 -8.48%
NC(=O)Cn1c(=O)n(CCCCCC(=O)NCc2ccccc2Cl)c(=O)c2sccc21 -12.4%
O=C(O)c1ccc[n+]([O-])c1 -4.84%
CC(CNC(=O)c1ccc(Nc2nc3ccccc3n3nnnc23)cc1)c1ccccc1 (configuration not stated) 8.19%
Cc1ccc(CSCCC(=O)N2CCN(c3cc(C)ccc3C)CC2)cc1 -30.8%
CCCN(CCC)C(=O)C1CCCN(c2ncnc3onc(-c4ccc(F)cc4)c23)C1 (configuration not stated) -6.5%
COc1ccc(-c2noc(CN(C(=O)Cc3ccc(C)cc3)C(C)C)n2)cc1 -29.3%
CCC(C)NC(=O)CSc1nnc(-c2ccc(C)cc2)c(-c2ccc(C)cc2)n1 (configuration not stated) -34.3%
O=C(NCCCO)C(=O)Nc1c2c(nn1-c1ccccc1)CSC2 -11.4%
COc1cccc(CNC(=O)C2CCN(C(=O)c3sccc3-n3cccc3)CC2)c1 -22.7%
CCC(CC)C(=O)NCc1nc2cccnc2n1Cc1ccc(F)cc1 -13.7%
CCCN(CCC)C(=O)c1cn(CC)c2ccc(S(=O)(=O)N3CCCCC3)cc2c1=O 23.6% [at 11.5 µM, percent change from vehicle, -100% = no light]
O=C(CN1C(=O)C2(SCC(=O)N2c2ccccc2)c2ccccc21)NCCc1ccccc1 (configuration not stated) 0.452%
CCc1ccc(NC(=O)CSc2nc3c(sc4ccccc43)c(=O)n2CCN(CC)CC)cc1 1.54%
Cc1ccc(CNS(=O)(=O)c2cc3c(cc2C)N(C)CCO3)cc1 -29.9%
Cc1cn2c(=O)cc(COC(=O)c3ccccc3F)nc2s1 7.37%
COc1cc(C)ccc1OCCSc1nc2ccc(NC(=O)c3cccs3)cc2s1 -31.6%
Cc1ccc(C(=O)Nc2ccccc2C(=O)OCc2cc(=O)n3nc(C4CC4)sc3n2)cc1 11.6%
Cc1ccc(CNC(=O)CN2C(=O)CSc3ccc(S(=O)(=O)N4CCCC4)cc32)cc1 -7.26%
COc1ccc2nc3sc(C(=O)N4CCN(c5ccc(F)cc5)CC4)cc3cc2c1 5.3%
Cc1ccc(C)c(N2CCN(S(=O)(=O)c3ccc4c(c3)CCCN4C(=O)C3CCC3)CC2)c1 -23.7%
CCOC(=O)c1cc(-c2ccc(OC)cc2)n(CCC(=O)Nc2cccc(C(C)=O)c2)c1C -39.5%
COc1ccc(CNS(=O)(=O)c2ccc(F)c(C(=O)Nc3c(C)cc(C)cc3C)c2)cc1 -22%
Cc1cc2oc(C(=O)Nc3sc4c(c3C(=O)NCc3ccccc3)CCCC4)cc(=O)c2cc1C 2.14%
CN(C)c1ccc(CNC(=O)CN2C(=O)CCn3nc(-c4cn(C)c5ccccc45)cc32)cc1 -3.62%
COc1cccc(-c2nc3c(c(SCc4ccccc4Cl)n2)Cc2c(CO)cnc(C)c2O3)c1 -6.84%
CCOc1ccc(OCC)c(-n2cnnn2)c1 -15.6%
Cc1c(NC(=O)Nc2ccc(Cl)c(C(F)(F)F)c2)c(=O)n(-c2ccccc2)n1C 0.141%
Fc1ccccc1N1CCN(c2ncnc3onc(-c4cccc(Cl)c4)c23)CC1 -22.3%
CC(=O)Nc1ccc(NC(=O)c2nc(SCc3ccccc3C)ncc2Cl)cc1 -15.8%
Cc1cccn2c(=O)cc(COc3ccc(NC(=O)C(C)Oc4ccccc4)cc3)nc12 (configuration not stated) -30.6%
Cn1c(=O)c2c(-c3ccccc3Br)n(Cc3ccccc3)cc2n(C)c1=O -17.1%
NS(=O)(=O)c1ccc(NC(=O)CN2CCN(c3ccc(F)cc3)CC2)cc1 -17.8%
COc1ccc(-n2c(SCC(=O)NC3CCCCC3)nc3c([nH]c4ccccc43)c2=O)cc1 -26.9%
COc1ccc(-c2cc3c(=O)n(CC(=O)Nc4cc(C)ccc4C)ccn3n2)cc1 12.4%
Cc1ccc(Cl)cc1-n1ncc2c(NCCC3=CCCCC3)ncnc21 19.1%
CCOc1ccc(-c2nnc(SCC(=O)c3ccc(F)cc3)n2-c2ccccc2)cc1 -37.2%
Cc1ccc(CNC(=O)c2cccc(NC(=O)N3CCSc4ncccc43)c2)cc1 -19.9%
Cc1ccc(S(=O)(=O)C(CNC(=O)COc2ccc(Cl)cc2)c2ccco2)cc1 (configuration not stated) -17.2%
Cc1cc(C)cc(NC(=O)CCCc2nnc3n(CC(C)C)c(=O)c4sccc4n23)c1 -3.61%
CCN(CC)CCCNC(=O)C(=O)Nc1ccc2nc3n(c(=O)c2c1)CCCCC3 10.6%
COc1ccc(/C=C/C(=O)Nc2ccc(Cl)cc2Cl)cc1 7.01%
Cc1ccc(NC(=O)Cn2cc(C(=O)c3ccco3)c3ccccc32)c(C)c1 -36.4%
O=C(Nc1cccc(Cl)c1)c1cc(S(=O)(=O)N2CCCc3ccccc32)ccc1F -30.5%
CCOc1cc(C2CC(=O)Nc3c2c(=O)nc(SCc2cccc(Cl)c2)n3C)ccc1O (configuration not stated) -1.12%
Cc1ccccc1CNC(=O)c1cc2cccc3c2n1CC(C)S3 (configuration not stated) -24.7%
CNC(=O)c1c(F)cccc1Nc1nc(Nc2cc3c(cc2OC)CCN3C(=O)CN(C)C)nc2[nH]ccc12 -47.9%
CCOc1ccc(NC(=O)Cn2c(=O)n(Cc3ccc(C(=O)NCc4ccc(C)cc4)cc3)c(=O)c3ccccc32)cc1 -8.68%
CC=CC[C@@H](C)C(=O)[C@H]1C(=O)N[C@@H](C(C)C)C(=O)N(C)CC(=O)N(C)[C@@H](CC(C)C)C(=O)N[C@@H](C(C)C)C(=O)N(C)[C@@H](CC(C)C)C(=O)N[C@@H](C)C(=O)N[C@H](C)C(=O)N(C)[C@@H](CC(C)C)C(=O)N(C)[C@@H](CC(C)C)C(=O)N(C)[C@@H](C(C)C)C(=O)N1C 17.2%
